From paper PMC4336329 (PLoS ONE, 2015)
Among all 310,000 compounds or so, about 14,000 (4.5%) showed an effect of 50% or more. The effect is printed as a negative number. Some of the results follow.

Each compound was assayed against human ether-à-go-go-related gene (hERG) potassium channel (human, UniProt Q12809) (assay: primary screen, population patch clamp on CHO cells stably expressing hERG).
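Further: peak tail current of the secondary pulse compared with the same well before compound.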

Sequence of human ether-à-go-go-related gene (hERG) potassium channel (Q12809 whole entry, looked up): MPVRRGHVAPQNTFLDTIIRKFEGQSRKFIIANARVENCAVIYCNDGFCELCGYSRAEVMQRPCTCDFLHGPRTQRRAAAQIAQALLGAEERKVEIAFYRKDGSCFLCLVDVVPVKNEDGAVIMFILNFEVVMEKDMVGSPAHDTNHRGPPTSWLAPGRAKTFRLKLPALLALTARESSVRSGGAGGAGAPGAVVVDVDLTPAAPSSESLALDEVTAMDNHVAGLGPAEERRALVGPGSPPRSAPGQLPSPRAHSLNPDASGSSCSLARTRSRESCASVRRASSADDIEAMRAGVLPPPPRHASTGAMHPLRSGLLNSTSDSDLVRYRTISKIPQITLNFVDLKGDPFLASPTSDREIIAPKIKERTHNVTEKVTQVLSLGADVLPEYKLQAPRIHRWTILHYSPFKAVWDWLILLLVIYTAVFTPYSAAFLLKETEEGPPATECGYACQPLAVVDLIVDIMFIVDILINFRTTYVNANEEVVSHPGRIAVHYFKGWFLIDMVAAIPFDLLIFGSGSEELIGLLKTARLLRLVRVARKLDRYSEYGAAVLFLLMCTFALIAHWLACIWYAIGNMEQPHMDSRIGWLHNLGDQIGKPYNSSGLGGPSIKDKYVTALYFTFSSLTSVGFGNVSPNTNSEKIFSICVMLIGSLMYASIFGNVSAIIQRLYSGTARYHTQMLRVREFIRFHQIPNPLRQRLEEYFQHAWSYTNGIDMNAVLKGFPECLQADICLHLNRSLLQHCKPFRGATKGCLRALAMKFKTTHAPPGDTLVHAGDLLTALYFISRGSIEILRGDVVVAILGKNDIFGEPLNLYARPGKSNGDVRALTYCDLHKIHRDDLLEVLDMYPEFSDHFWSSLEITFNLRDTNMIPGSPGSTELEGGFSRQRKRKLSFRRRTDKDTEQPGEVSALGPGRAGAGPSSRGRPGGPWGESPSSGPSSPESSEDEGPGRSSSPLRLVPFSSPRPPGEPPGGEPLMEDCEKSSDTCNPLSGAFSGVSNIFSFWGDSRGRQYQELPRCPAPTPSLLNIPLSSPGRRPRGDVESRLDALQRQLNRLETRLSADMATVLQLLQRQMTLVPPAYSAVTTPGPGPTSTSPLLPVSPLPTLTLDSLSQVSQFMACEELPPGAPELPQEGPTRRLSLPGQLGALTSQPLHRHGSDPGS

SMILES	hERG current change (%, negative = inhibition) at 10uM [%]
Cc1ccc(NS(=O)(=O)c2cc(-c3n[nH]c(=O)c4ccccc34)ccc2C)cc1	9.59
CC(=O)N1N=C(c2ccccc2)CC1c1cccs1 (centres unmarked)	0.963
NC(=S)N=Nc1c(O)[nH]c2ccccc12	14.7
COC(=O)C1=C(c2ccc(F)cc2F)C[C@@H]2CC[C@H]1N2C(=O)NCC1CC1	5.78
CC1CC(C)CN(C(=O)C(C)N(C)CC(=O)Nc2ccc(Cl)cc2)C1.O=C(O)C(=O)O (centres unmarked)	-24
CC1CCCCN1CCCNC(=O)c1nn(C)c2c1CSc1ccccc1-2 (centres unmarked)	-67.1
CCS(=O)(=O)N1CCCC(C(=O)NCCc2ccc(OC)c(OC)c2)C1 (centres unmarked)	13.1
COc1ccc(-c2nc(NC(=O)c3ccccc3)sc2-c2ccc([N+](=O)[O-])cc2)cc1	-1.45
CN(C)CCCNc1nc2sc3c(c2c(=O)n1CCc1ccccc1)CCCCC3	-28
CCC(C)NC(=O)c1ccccc1NC(=O)c1ccccc1N(C)S(C)(=O)=O (centres unmarked)	0.0444
CC1CC(C)(C)NC(=S)N1CC(=O)N1CCN(Cc2ccccc2)CC1 (centres unmarked)	12.4
O=C(NC(=S)N1CCc2ccccc21)c1ccc(Br)o1	21
O=C(CCCCCN1C(=O)CCC1=O)NCc1ccccc1	6.93
NC(=O)c1ccc(-c2nnn(CC(=O)N(C3CCCC3)C3CCS(=O)(=O)C3)n2)cc1 (centres unmarked)	4.72
Cc1ccc(OCC(O)CN2CCN(CC(O)COC(C)C)CC2)c(C(C)(C)C)c1 (centres unmarked)	-65.2
CCOC(=O)N1CCN(S(=O)(=O)c2cn(C)c(=O)n(C)c2=O)CC1	2.66
O=C(NC(=S)NC1CCS(=O)(=O)C1)c1cccc([N+](=O)[O-])c1 (centres unmarked)	11.4
Cc1c(C(N)=O)c(-c2ccccc2)nn1-c1ccccc1	-10.9
CC(C)(C)CC(C)(C)NC(=O)c1ccccc1	1.34
CCCc1cc(=O)[nH]c(SCC(=O)N(C)Cc2ccccc2)n1	-1.55
O=S(=O)(Nc1ccc(Cl)cc1)c1ccc(N2CCOCC2)c(NC(=S)NC2CC2)c1	37.5
Cc1nn(CC(=O)Nc2ccc3c(c2)nc(CCN2CCCCC2)n3C)c(=O)c2ccccc12	-8.83

SMILES	hERG current change (%, negative = inhibition) at 10uM [%]
CCOC(=O)c1c(NC(=O)COC(=O)Cn2c(C(F)(F)F)nc3ccccc32)sc(C)c1C	10.7
C=C(C)CNC(=S)N1CCNC(=O)C1CC(=O)OC (centres unmarked)	16.1
O=C(COC(=O)c1ncc(Cl)c(Cl)c1Cl)NC1CCCCCC1	19
c1ccc(-n2ccnc2)cc1	12.3
CCCc1n[nH]c2c1/C(=N\O)CCC2	22.3
O=C(OCC(=O)N1CCc2ccccc21)c1n[nH]c(=O)c2ccccc12	26.5
COC(=O)c1cc(OC)c(OC)cc1NC(=O)C1CCCO1 (centres unmarked)	-7.89
Cc1cccc(NC(=S)N2CCC(c3nc4ccccc4o3)CC2)c1	-21.9
C/C(=N\NS(=O)(=O)c1ccccc1)c1cccc(NC(=O)c2cccc(Cl)c2)c1	-6.56
Cc1ccc(S(=O)(=O)N2CCCC2C(=O)Nc2nccs2)cc1 (centres unmarked)	9.86
CCCN1CCN(CCCNC(=O)c2ccc(CS(=O)c3ccccc3C)o2)CC1 (centres unmarked)	2.01
COc1ccc(CNc2ncc(-c3cccc([N+](=O)[O-])c3)n2C)c(OC)c1OC.O=C(O)C(=O)O	-47.5
COc1cc(C(=O)N2CCN(CCCc3ccccc3)CC2)cc(OC)c1OC	-9.98
Cc1cc(C)nc(NC(=O)Nc2ccccc2C(F)(F)F)n1	1.21
C[C@@H]1CCC[C@]2(O[C@@H](CCO)C[C@H](O)[C@H]2O)O1	9.75
COc1ccccc1N1CCN(C(=O)C2CCC(CNS(=O)(=O)c3ccc(NC(C)=O)cc3)CC2)CC1 (centres unmarked)	-29
CCCC(=O)OCC(=O)Nc1ccc2c(c1)OCO2	8.4
CCN(CC(=O)NCc1ccc(F)cc1)CC(=O)NC1CCCC1	-0.0564
S=c1[nH]nc(-c2cc(-c3ccsc3)n[nH]2)n1-c1cccc2ccccc12	-12.6
CCN(CC)C(=O)c1ccc(NC(=O)Nc2ccccc2F)cc1	-3.74
CCCn1c(SC(C)C(=O)NCC2CCCO2)nc2cc(Cl)ccc2c1=O (centres unmarked)	1.08
Cc1ccc(C(=O)N2CCCCCC2)cc1Br	-17.6
